Measured values reported in PubChem BioAssay AID881 (National Center for Advancing Translational Sciences (NCATS), 2007).
About 610 (0.55%) of roughly 110,000 compounds were called active. Calls follow the shape of the dose curve; as a rule, active = well fitted inhibition curve with a large enough effect; inconclusive = small, poorly fitted or top-dose-only effect; inactive = no such curve, though single readings can be large or run the other way. Inconclusive results, whose numbers are uncertain, are shown. A potency beside an inconclusive call is a rough fit, not a confirmed value.

biological target: Polyunsaturated fatty acid lipoxygenase ALOX15B (Homo sapiens) (UniProt O15296); test: qHTS Assay for Inhibitors of 15-hLO-2 (15-human lipoxygenase 2); conditions: purified 15hLO-2, xylenol orange hydroperoxide absorbance; series mostly up to 57.1 µM; also: nearly all actives have a fitted effect of over 60% in size
From the text: Assay Overview: NIH Molecular Libraries Screening Centers Network [MLSCN] NIH Chemical Genomics Center [NCGC] MLSCN Grant: MH081283-01A1 PI Name: Holman, T.R., University of California, Santa Cruz Human lipoxygenase 15hLO-2 is a member of the closely related lipoxygenase family of enzymes which catalyze the site-specific oxidation of arachidonic acid to various hormone precursor molecules and as such is a candidate for drug development in a variety of disease areas, such as cancer and inflammation. Inhibition of 15hLO-2 activity was screened by utilizing arachidonic acid as a substrate. The extent of hydroperoxide product formation was measured by a secondary chromogenic reaction in which xylenol orange (XO, Sigma-Aldrich, cat. number 39,818-7) reacts with the ferric ions produced from the reaction between the hydroperoxide and ferrous ions. The Fe(III)-XO complex is characterized with red-shifted absorbance at 560 nm. A purified preparation of human 15hLO-2 was supplied by Professor Ted Holman, University of California, Santa Cruz.
Assay Protocol: Buffer: 25 mM Hepes pH 7.5, 0.01% Triton X-100. Reagents/Controls: Buffer in columns 3 and 4 as negative control (no enzyme). […] The absorbance at 405 and 573 nm were measured using ViewLux (Perkin-Elmer) High-throughput CCD imager and absorbance protocol settings. The 573-to-405 absorbance ratio was used to compute reaction progress.
Potency is read from the fitted curve at half-maximal effect; tags tell the direction and shape of the fitted curve.

Sequence of UniProt O15296 (O15296 whole entry, looked up): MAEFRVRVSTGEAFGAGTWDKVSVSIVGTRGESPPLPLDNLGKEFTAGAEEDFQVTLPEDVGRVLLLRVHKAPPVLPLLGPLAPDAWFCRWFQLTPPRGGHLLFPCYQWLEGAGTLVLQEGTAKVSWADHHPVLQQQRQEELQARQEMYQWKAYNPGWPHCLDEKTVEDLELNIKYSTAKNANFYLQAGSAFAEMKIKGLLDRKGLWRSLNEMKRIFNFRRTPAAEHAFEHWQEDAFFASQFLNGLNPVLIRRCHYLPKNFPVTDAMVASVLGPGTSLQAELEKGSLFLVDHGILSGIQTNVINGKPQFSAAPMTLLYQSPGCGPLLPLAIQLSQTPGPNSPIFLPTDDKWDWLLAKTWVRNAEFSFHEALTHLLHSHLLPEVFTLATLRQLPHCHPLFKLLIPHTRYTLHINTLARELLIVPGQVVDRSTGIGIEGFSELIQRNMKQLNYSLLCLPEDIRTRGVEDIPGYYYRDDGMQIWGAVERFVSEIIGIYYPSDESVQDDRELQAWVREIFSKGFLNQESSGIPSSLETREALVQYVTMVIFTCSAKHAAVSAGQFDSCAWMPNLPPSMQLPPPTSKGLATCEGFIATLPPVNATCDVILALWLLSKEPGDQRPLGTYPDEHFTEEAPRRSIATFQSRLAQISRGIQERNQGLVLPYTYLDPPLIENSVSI

Row | Compound | Potency
1 | O=C1NN(c2ccc(F)c(Cl)c2)C(=O)/C1=C\c1cccc(OC(=O)c2cccs2)c1 | inconclusive: 15.8 µM [inhibitor, partial curve]
